Results published in paper PMC12136788.
The list shows a part of the results.

T1: UNK ZnF1-6 (called full-length) (human, UniProt Q9C0B0 30-357)
T1 sequence: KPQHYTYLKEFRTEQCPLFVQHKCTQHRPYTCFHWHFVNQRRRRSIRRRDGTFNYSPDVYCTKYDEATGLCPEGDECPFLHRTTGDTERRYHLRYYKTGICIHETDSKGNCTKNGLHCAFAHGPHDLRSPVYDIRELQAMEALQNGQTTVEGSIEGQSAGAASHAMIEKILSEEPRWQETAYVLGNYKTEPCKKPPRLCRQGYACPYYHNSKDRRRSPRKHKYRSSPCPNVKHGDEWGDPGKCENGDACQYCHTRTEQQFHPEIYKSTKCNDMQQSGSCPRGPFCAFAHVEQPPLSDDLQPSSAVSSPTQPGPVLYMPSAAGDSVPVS

B1: chr10:95611293:95611394:-|CDS|ENSG00000059573|msi1|FALSE|bound_elsewhere (ssRNA)
RNA: GGGAGUUCUACAGUCCGACGAUCCCCCUCCGAAGUGAAGUCACUCCGAACUGAGUAUGGGGACCUGGAAUUAUGCAUUGAAGUAGUGGACAACGUUCAGGAUGCCAUUGACCACAUCCACAAGUAUGGCAGCUCCCACACGGACAACAGAGGAUUGAGCAUCA
B2: chr14:60713409:60714203:-|CDS|ENSG00000100625|control|control|control (ssRNA)
RNA: GGGAGUUCUACAGUCCGACGAUCUUCUGAGAGCAAAGCAACAAGUAGCUUAAUGAUGCUGGACUCUAAAUCCAAGUAUGUCUUAGAUGGCAUGGUUGAUACUGUCUGUGAAGACCUGGAAACAGACAAAAAAGAGCUUGCCAACAACAGAGGAUUGAGCAUCA
B3: ENSG00000136451:be:win_751|CDS|ENSG00000136451|bound_else_gene|NA|bound_elsewhere_windowed (ssRNA)
RNA: GGGAGUUCUACAGUCCGACGAUCGUAAAACAUGUCCAUUCAACAGAAAGACCCUUCAAAUGCCAAACGUGCACUGCUGCCUUUGCCACCAAAGACAGACUGCGGACACACAUGGUGCGCCAUGAAGGCAAGGUAUCAUGUAACCAACAGAGGAUUGAGCAUCA
B4: chr1:9729132:9729211:-|3pUTR|ENSG00000171603|msi1_unk|total|mutant (ssRNA)
RNA: GGGAGUUCUACAGUCCGACGAUCCCGUUCUGAGGACACUGGUGGCUGUGCUAUGUGUGGCCAUCCUCCAUGUCCCGUCCCUGCCGCUGCUCUGUUCCGACAGCGGACAGACGCUCACGCCCAGGGGAUGUCCUCACGCUGUCGCAACAGAGGAUUGAGCAUCA
B5: chr17:28327902:28328001:+|3pUTR|ENSG00000109084|msi1_unk|FALSE|overlapping (ssRNA)
RNA: GGGAGUUCUACAGUCCGACGAUCUCCCUGUAUCUGAAGUCUAGCAUCUCAAGGCUGAUCUGGAAGUGUGCUAGUAUGCUCCCUAGUGGAUAACUUAAUCUUUUAAUACAGUUCCGUCAUUCCCAUCUUGUUUUCAGAAGAGAACAACAGAGGAUUGAGCAUCA
B6: ENSG00000198589:be:win_3651|CDS|ENSG00000198589|bound_else_gene|NA|bound_elsewhere_windowed (ssRNA)
RNA: GGGAGUUCUACAGUCCGACGAUCCCUCACUAGAGAAACCAAAUUAAUUAAUGAUUGUCAUGGUAGUGUCUCUGAGGCUUCUUCUGAGCAAAAGAUUGCGAAGUUGGAUGUUUCCAAUGUUGCUACAGAUACUGAGAGGCUGGACAACAGAGGAUUGAGCAUCA
B7: chr20:57651677:57651767:-|3pUTR|ENSG00000124225|msi1_unk|FALSE|overlapping (ssRNA)
RNA: GGGAGUUCUACAGUCCGACGAUCGUUGAGCUGUGUCUUGAAGGCAAAAGAAAAAAAAUUUCUACAGUAGUCUUUCUUGUUUCUAGUUGAGCUGCGUGCGUGAAUGCUUAUUUUCUUUUGUUUAUGAUAAUUUCACUUAACUUUCAACAGAGGAUUGAGCAUCA
B8: chr22:20142972:20143073:+|CDS|ENSG00000099904|msi1|total|mutant (ssRNA)
RNA: GGGAGUUCUACAGUCCGACGAUCGGGGAUCAUGUGGCCCUGCAGCCCCUGCGCUCUGAGGGGGGGCCCCCCACGCCCCACCGCCGCAUUUUUGCCCCCCAUGCACUGCCCAACCGCAACGGCAGCCUGUCCUAUGACAGCCUGCAACAGAGGAUUGAGCAUCA
B9: chrX:85271413:85271529:+|CDS|ENSG00000147180|unk|FALSE|unique (ssRNA)
RNA: GGGAGUUCUACAGUCCGACGAUCUGUGAUAAAGGUUUUCAUCGUCCUUCUGAGCUCAAAAAGCAUAGUGAUAUCCAUAAGGGUAGGAAGAUUCAUCAGUGCAGGCACUGUGACUUUAAAACAUCCGAUCCAUUUAUUCUUAGUCAACAGAGGAUUGAGCAUCA
B10: chr22:40825413:40825514:-|3pUTR|ENSG00000100380|msi1|FALSE|bound_elsewhere (ssRNA)
RNA: GGGAGUUCUACAGUCCGACGAUCGGUAAUACCCACAACAACUGUAGUUUCUUACUUGGCCAAGAGAAUGCUUAUUUAAGUGUUAGACUUCCAUUCUGGCAAAAUCUUGCCUUAUCAGAAGACAUUGGAAAGAGGGAUUCCCUUCAACAGAGGAUUGAGCAUCA
B11: ENSG00000106799:stop:overlap|stop_codon|ENSG00000106799|stop_codon|NA|stop_codon (ssRNA)
RNA: GGGAGUUCUACAGUCCGACGAUCGCAAGCUGCUUGAGAGCAGCCUUGUAUUCCCAGCAUCCAUCACAGUGCCUAAUACAUGGUAGAUCCUCAGUAGAUAUUUGUUGAGUCCAUGAGUCUUCAAAAGAACUUAAUUAGGUACAUCAACAGAGGAUUGAGCAUCA
B12: chr8:43200960:43201061:+|3pUTR|ENSG00000165102|unk|FALSE|unique (ssRNA)
RNA: GGGAGUUCUACAGUCCGACGAUCCAAAUUCUAAGUGUUUUCUCUUUAGGUUUCCCUGGCUUUGUGAAUGGAUCAUGUGUCUCUAGGUAUAAACCUGACAUCAUCUUUCCACCCGGCUUACCUCCACCAGAUCUCCCCAGUUCUCAACAGAGGAUUGAGCAUCA
B13: chr15:89477516:89477653:-|CDS|ENSG00000140519|control|control|control (ssRNA)
RNA: GGGAGUUCUACAGUCCGACGAUCCCGGCUGCACAUCCAGGACACAUGUGGCAUUAACAAUCUGCAUGGCAUUCCUGGCAUCAUAGGCGGCAUCGUGGGUGCUGUGACAGCGGCCUCCGCCAGCCUUGAAGUCUAUGGAAAAGACAACAGAGGAUUGAGCAUCA
B14: chr17:79086671:79086772:+|3pUTR|ENSG00000167280|msi1|total|mutant (ssRNA)
RNA: GGGAGUUCUACAGUCCGACGAUCACCGGCUGCAAGAUGCUGAUGCCGAGAAUGAUGAUUUUCUUUCCUGCAGAUGAAACUAUCCGAAAGGGUCUCCGAUUGUGGCAGGCCGGCUUUGGAGCAGGCGCCGAGACAUUUCUGAGCCAACAGAGGAUUGAGCAUCA
B15: chr10:89213657:89213758:-|3pUTR|ENSG00000107798|msi1|FALSE|unique (ssRNA)
RNA: GGGAGUUCUACAGUCCGACGAUCUUACAAUACUGUCCGGUGGACAAAAUGACAAUUGAUAUGUUUUUCUGAUAUAAUUACUUUAGCUGCACUAACAGUACAAUGCUUGUUAAUGGUUAAUAUAGGCAGGGCGAAUACUACUUUCAACAGAGGAUUGAGCAUCA
B16: chr5:40945159:40945374:+|CDS|ENSG00000112936|unk|total|mutant (ssRNA)
RNA: GGGAGUUCUACAGUCCGACGAUCGAAUUUUACAACCGUACUUGGUCUUAUGUAAAACAUACGUCGACAGAACACACAUCAUCCCGUCGGAAGCGCUCCUUUUUCCGAUCUUCAUCAUCUUCUUCACGCAGUUAUACUUCACAUCAACAGAGGAUUGAGCAUCA
B17: ENSG00000159164:stop:overlap|stop_codon|ENSG00000159164|stop_codon|NA|stop_codon (ssRNA)
RNA: GGGAGUUCUACAGUCCGACGAUCUUGCAUCCUGGAAUGCGCUGGACGUGUUGACUGUUGAACUCUACCCCUCAGACAAGAGGUAGUUGGAAUGUGUUGGAGGCAGGGCAGUGGAUUCAGGGGAGGGGUGGGGUGAGGAAGGAGCAACAGAGGAUUGAGCAUCA
B18: chr8:58582127:58582250:+|3pUTR|ENSG00000137575|unk|total|mutant (ssRNA)
RNA: GGGAGUUCUACAGUCCGACGAUCUUCAUAUUACUUCCGUUCUACCGCAUACUUGCAUCUUUAACAUGCUAUCACCGUACAUUCCGAAUGAUUGCCUUUGAUUUUUUUUUUAAAUUCUGUGUGUGUGUGUGUAAAAUGCCAAUUCAACAGAGGAUUGAGCAUCA
B19: chr16:66721972:66722075:-|3pUTR|ENSG00000135720|unk|FALSE|unique (ssRNA)
RNA: GGGAGUUCUACAGUCCGACGAUCUUUUUAAUUCAGUUUUUUAAAAAAACAAAUGUAUUGUGGCUUCCAGUUACCAGGUUGUCUAGGUAAUGACAGUAAACUGACUGUAGAAUGAUAAUUGUGGUAUAGUGACCAAUAGAUGCCCAACAGAGGAUUGAGCAUCA
B20: chr4:138171744:138171845:-|3pUTR|ENSG00000151012|msi1|FALSE|unique (ssRNA)
RNA: GGGAGUUCUACAGUCCGACGAUCAGGAGUCAGUUAUUUUUAUUCAUAUAUUUUAGCAUAUUCGAACUAAUUUCUAAGAAAUUUAGUUAUAACUCUAUGUAGUUAUAGAAAGUGAAUAUGCAGUUAUUCUAUGAGUCGCACAAUCAACAGAGGAUUGAGCAUCA
B21: chr7:73736928:73737391:-|CDS|ENSG00000106077|control|control|control (ssRNA)
RNA: GGGAGUUCUACAGUCCGACGAUCGGUAGAGGUAGACGGGCGCUUCGUGUGGAGGGUGAACUUGGAUGCCCUGACCCAGCACCUAGACAAGAUCUUGGCUUUCCCACAGAGGCAGGAGUCCUACCUCGGGCCAACACUCUUUCUCAACAGAGGAUUGAGCAUCA
B22: chr12:39619279:39619382:-|CDS|ENSG00000173208|unk|total|mutant (ssRNA)
RNA: GGGAGUUCUACAGUCCGACGAUCCGAGACCAUUUGUGAAAAACCUUCGCCUGGAGUGAAUGCAGAUUUCUUCAAACAGCUACCCGAACUUCGGAAAAUUUUGUUUCCAAAACUUGUGACCACUGAAACAGGGUGGCUCUGCCUCAACAGAGGAUUGAGCAUCA

The binders below were run against T1, UNK ZnF1-6 (called full-length) (assay: nsRBNS (natural sequence RNA bind-n-seq); RBNS binding buffer (assumed for nsRBNS): 25 mM Tris pH 7.5, 150 mM KCl, 3 mM MgCl2, 0.01% Triton X-100, 500 ug/ml BSA, 20 U/ml SUPERase-In, 4 C; UNK is unkempt and MSI1 is Musashi-1; names of the RNAs are library labels; protein concentration not given here; high values mean tight binding).

Binder | binding signal
B1 | 0.526 enrichment R
B2 | 0.412 enrichment R
B3 | 0.476 enrichment R
B4 | 0.538 enrichment R
B5 | 1.2 enrichment R
B6 | 1.45 enrichment R
B7 | 1.22 enrichment R
B8 | 0.715 enrichment R
B9 | 0.514 enrichment R
B10 | 0.252 enrichment R
B11 | 1.07 enrichment R
B12 | 0.573 enrichment R
B13 | 0.419 enrichment R
B14 | 0.592 enrichment R
B15 | 0.664 enrichment R
B16 | 0.468 enrichment R
B17 | 0.426 enrichment R
B18 | 0.76 enrichment R
B19 | 1.06 enrichment R
B20 | 0.976 enrichment R
B21 | 0.812 enrichment R
B22 | 0.434 enrichment R
